Experimental data from PubChem BioAssay AID1346428 (National Center for Advancing Translational Sciences (NCATS), 2018).
Hit rate of the full screen: of about 48,000 compounds, about 1,200 (2.5%) were called active. Inconclusive results (about 2%) are left out.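 How the source made its calls: active means activation of at least 60% and not above a set upper limit (about 1 call in 100 departs from these limits); inconclusive means activation of 40% to 60%, or above that upper limit; inactive means activation under 40%.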 Some of the results follow.

Target: Probable G-protein coupled receptor 32 (Homo sapiens) (UniProt O75388)
Sequence of UniProt O75388 (O75388 whole entry, looked up): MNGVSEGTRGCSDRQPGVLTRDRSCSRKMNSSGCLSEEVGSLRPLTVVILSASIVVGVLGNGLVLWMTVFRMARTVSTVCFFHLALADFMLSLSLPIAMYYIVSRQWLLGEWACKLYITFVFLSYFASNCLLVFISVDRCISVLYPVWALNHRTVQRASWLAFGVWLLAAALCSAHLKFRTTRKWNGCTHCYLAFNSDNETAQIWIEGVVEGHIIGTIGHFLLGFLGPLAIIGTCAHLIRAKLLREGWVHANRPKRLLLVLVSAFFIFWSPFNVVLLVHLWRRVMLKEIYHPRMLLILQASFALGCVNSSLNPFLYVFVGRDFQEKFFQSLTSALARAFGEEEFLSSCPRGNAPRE
Test: qHTS for Agonists of Human Resolvin D1 Receptor DRV1; further: 0% is about no effect
Conditions: CHO-K1 GPR32 beta-arrestin PathHunter luminescence, 90 min; at 76.9 µM; active compounds read high; zero percent set by DMSO-only wells
Procedure, shortened: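 Cells are plated overnight, treated with compounds in DMSO for 90 minutes at 37 °C, and developed with PathHunter detection reagent for 1 hour before luminescence is read; signal reflects beta-arrestin binding to GPR32 in engineered CHO-K1 cells.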

activation, active:
CC(C)C(=O)Nc1nc2c(s1)CC(C(C)(C)C)CC2 (stereo not drawn) 63.2%

activation, inactive:
COC(=O)c1ccc(NC(=O)CSc2nnc3c4ccccc4n(C(C)C)c3n2)cc1 12.1%, Cc1ccc(NC(=O)c2ccc(CN3CC(=O)N4CCCCC4C3=O)cc2)c(C)c1 (stereo not drawn) -9.96%, NCCS(=O)O 3.84%, COc1ccc(CNC(=O)CC(c2ccc(OC)cc2)N2Cc3ccccc3C2=O)cc1 (stereo not drawn) -18.6%, COc1cccc(Cc2nc3ccccc3nc2SCC(=O)N2CCCc3ccccc32)c1 -22.5%, Cc1ccc(-c2nn(CC(=O)NCc3ccccc3)c3c2cnc2ccc(F)cc23)cc1C -10.3%, O=C(CSc1nccn1C1CCCC1)Nc1cc(C(F)(F)F)ccc1Cl -14.6%, CCOC(=O)c1c(NC(=O)c2cc(=O)c3cc(C)cc(C)c3o2)sc(C)c1C -0.122%, Cc1c(NC(=O)C(C)(C)Oc2ccc(Cl)cc2)cccc1-c1nc2ccccc2o1 -17.1%, CCCNC(=O)CN1C(=O)COc2ccc(S(=O)(=O)N3CCC(C)CC3)cc21 -3.51%, COc1ccc(OC)c(-n2c3c(cc(-c4nc(-c5ccc(Cl)cc5)cs4)c2=O)C(=O)CC(C)(C)C3)c1 21.3%, O=C(c1ccc2c(c1)N(Cc1ccccc1)C(=O)c1ccccc1S2(=O)=O)N1CCc2ccccc21 -12.2%, COc1ccccc1CNC(=O)CSc1ccc(-c2sc(-c3ccccc3)nc2C)nn1 -15.5%, O=S(=O)(c1ccc(Cl)cc1)c1nc(-c2ccco2)oc1SCc1ccccc1F -25.5%, CCC(=O)N1CCc2cc(S(=O)(=O)NC(Cc3ccccc3)C(=O)Nc3ccccc3C)ccc21 (stereo not drawn) -6.89%, CCOc1ccc(OCC)c(NC(=O)c2cc3ccccn3n2)c1 5.2%, CN(C(=O)CSc1nnc(COc2ccccc2)o1)c1ccccc1 19.9%, CC(=O)c1cccc(NS(=O)(=O)c2cc3c(cc2C)n(C)c(=O)c(=O)n3C)c1 -18.9%, CCOCCCNC(=O)C(c1ccccc1)N1Cc2ccccc2C1=O (stereo not drawn) -3.98%, O=C(Nc1sc2c(c1C(=O)Nc1ccccc1)CCC2)c1ccc(Br)cc1 -0.469%, Cc1cccc(NC(=O)C(=O)NCC(c2ccc3c(c2)OCO3)N2CCN(c3ccccc3)CC2)c1 (stereo not drawn) 9.42%, CC(C(=O)O)c1ccc(/C=C2\CCCCC2=O)cc1 (stereo not drawn) 10.3%, C#CCn1c(=O)n(-c2cccc(Cl)c2C)c(=O)c2c3c(sc21)CN(C(C)=O)CC3 23.9%, Cc1ccc(C)c(N2CCN(CCCNC(=O)c3cnn(-c4ccc(F)cc4)c3C3CCN(C(=O)OC(C)(C)C)CC3)CC2)c1 -9.1%, CCOc1ccc(CNC(=O)Cn2nc(C)c3c(C)n(-c4ccc(C)cc4)nc3c2=O)cc1 -9.04%, COc1ccc(-c2cnc(C)o2)cc1S(=O)(=O)Nc1ccc(OC(F)(F)F)cc1 -2.74%, Cc1ccc(C)c(CSc2nnc(C)n3c2cc2sccc23)c1 -38.6%, O=C(CCS(=O)(=O)c1ccccc1)N(Cc1cccnc1)c1nc2ccc(F)cc2s1 -15.4%, CC(=O)c1ccc(-n2c(CCC(=O)O)ccc2-c2cccs2)cc1 -4.82%, O=C(Cn1c(=O)nc(-c2ccccc2)c2ccccc21)N1CCN(c2ccc(F)cc2)CC1 -5.56%, COc1cc(OC)c(NC2=C(c3ccc(C(F)(F)F)cc3)C(=O)c3ccccc32)cc1Cl -31.7%, Cc1noc(/C=C/c2ccccc2F)c1S(=O)(=O)N1CCC(C(=O)NCC(C)c2ccccc2)CC1 (stereo not drawn) -6.56%, COc1cc(NC(=O)C(Cc2ccccc2)NS(=O)(=O)c2cccs2)cc(OC)c1 (stereo not drawn) 28.8%, O=C(CS(=O)(=O)c1cccc2nsnc12)NCc1ccccc1 6.96%, CC(C)Oc1ccccc1NC(=O)CSc1nccn1C -6.81%, OCCCn1c(-c2ccc(F)cc2)csc1=Nc1ccc(F)cc1 -7.75%, Cc1ccc(-n2c(=O)c3c(c4cc(C)ccc4n3C)n(CC(=O)c3ccc(Cl)cc3)c2=O)cc1 0.384%, O=C(O)CSc1nc2ccc(NC(=O)COc3ccc(Cl)cc3)cc2s1 21.6%, Cc1sc2ncn(CC(=O)N(C)c3ccc(C(C)C)cc3)c(=O)c2c1S(=O)(=O)N1CCC(C)CC1 -2.96%, COc1ccc(-c2noc(CC(=O)Nc3cc(OC)ccc3OC)n2)cc1 -17.7%, Cc1ccc(Nc2nc3ccc(C(=O)c4ccccc4)cc3n3c(C)nnc23)c(C)c1 -8.99%, CC1CCC(NC(=O)C2(C)Cc3ccccc3C(=O)N2Cc2ccc(Cl)cc2)CC1 (stereo not drawn) -23.9%, CC(=O)c1cccc(NC(=O)CN2C(=O)CC(c3ccc(C)cc3C)=Nc3ccccc32)c1 -10.6%, CCCn1c(=O)c2sccc2n2c(CCCC(=O)N3CCN(c4cccc(Cl)c4)CC3)nnc12 -0.821%, CCCCN(CC)CCCNC(=O)c1cn(CC)c2ccc(S(=O)(=O)N3CCc4ccccc4C3)cc2c1=O -1.47%, O=C(/C=C/c1ccc(Cl)cc1)N1CCC(c2nc3ccccc3o2)CC1 -4.64%, COc1ccc(CCNCc2c(C(=O)O)c(C)n(Cc3cccc(Cl)c3)c2C)c(OC)c1OC -2%, CCc1ccccc1NC(=O)CCC(=O)N1CC(C)Oc2ccc(C)cc21 (stereo not drawn) -19.4%, CCc1cc2c(cc3c(=O)n(CC(=O)N4CCN(c5cccc(C)c5C)CC4)nc(CC)n32)s1 0.262%, Cc1ccc(C)c(N2CCN(S(=O)(=O)c3ccc(C(=O)N(C)C)s3)CC2)c1 -13.2%, COc1ccc(CCNC(=O)c2cc3c(=O)n(C)c4ccccc4c3s2)cc1OC 10.3%, O=C(Cn1cc(C(=O)c2ccccc2)c(=O)c2cc3c(cc21)OCCO3)Nc1ccc(F)c(F)c1 10.2%
